Experimental data: the supplement of paper PMC9513381
Recombinant human monoclonal antibodies (heavy:light variable regions). ELISA EC50 on the named antigen, from 10 µg/ml down; IC50 / IC90 against spike pseudovirus on 293T-ACE2 cells, 48 h; lower = stronger. Calls: IC50 above 1,000 ng/ml = non-neutralizing; EC50 above 1,000 ng/ml = non-binder. The source prints 1000 for neutralization that was not reached; it is given as >1000 ng/ml. Only binders of the Wuhan-Hu-1 domain have neutralization values.

Assays:
[1] = target: SARS-CoV-2 Wuhan-Hu-1 spike pseudovirus; assay: pseudovirus neutralization IC50; higher = weaker neutralization
Experimental: (§1)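 Single-round luciferase reporter pseudovirus mixed with antibody dilutions and put on 293T-ACE2 cells for 48 h; signal relative to no-antibody wells, four-parameter fit.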

[2] = target: SARS-CoV-2 Wuhan-Hu-1 spike pseudovirus; assay: pseudovirus neutralization IC90; higher = weaker neutralization
Experimental: as §1

[3] = target: SARS-CoV-2 Delta (B.1.617.2) spike RBD; assay: ELISA binding EC50; higher = weaker binding; ELISA of recombinant human antibody on coated antigen, from 10 µg/ml in fourfold dilutions; four-parameter fit.
[4] = target: SARS-CoV-2 Omicron BA.1 spike protein; assay: as above
[5] = target: SARS-CoV-2 Wuhan-Hu-1 spike receptor-binding domain; assay: as above

Row | Binder | pseudovirus neutralization IC50 [1] | pseudovirus neutralization IC90 [2] | ELISA binding EC50 [3] | ELISA binding EC50 [4] | ELISA binding EC50 [5]
1 | B614 (protein) chain 1: EVQLVESGGGLIQPGGSLRLSCAASGIIVSSNYMNWVRQAPGKGLEWLSVFYPGGTTQYADSVKGRFTISRDNSKNTLYLQMNSLRAEDTAVYYCARDRWEGAFDIWGQGTMVTVSS chain 2: DIQLTQSPSFLSASVGDRVTITCRASQGISNYLAWYQQKPGKAPKLLIYAASTLQSGVPSRFSGSASGTEFTLTISSLQPEDFATYYCQQLNSYPRLTFGGGTKVEIK | 7.56 ng/mL | 30.8 ng/mL | 4.63 ng/mL | > 1000 ng/mL | 1.76 ng/mL
2 | B623 (protein) chain 1: QVQLVESGGGVVQPGRSLRLSCAASGFTFSSHAMHWVRQAPGKGLEWVAVILDDGSNKYYADSVKGRFTISRDNSRNTLYLQMNSLRVEDTAVYYCARDYHVDRVMVTWFDPWGQGTLVTVSS chain 2: DIQMTQSPSSLSASVGDRVNIHCRASQSIGTYLNWYQQKPGKAPKLLIYVVSNLQSGVPSRFSGSGSGTDFTLTISSLQPEDFATYYCQQSYSTPPWTFGQGTKVEIK | > 1000 ng/mL | > 1000 ng/mL | 16.3 ng/mL | 41.7 ng/mL | 1.94 ng/mL
3 | B2102 (protein) chain 1: QVQLVQSGAEMKKPGSSVKVSCEASGNTFSTYPISWVRQAPGQGLEWMGRIIPMLGIANYAQKFQDRVTITVDKSTSTAYMELTSLRSEDTAVYYCARTPSRPDSNTWYFHQWGQGTLVTVSS chain 2: QSVLTQSPSVSGAPGQRVTISCTGSNSNIGAGYDVHWYQQLPGTAPKLLIYANNNRPSGVPDRFSGSKSDTSASLAITGLQAEDEADYYCQSYDSSLSDSVFGGGTKLTVL | 116 ng/mL | > 1000 ng/mL | 42.8 ng/mL | 20.5 ng/mL | 7.28 ng/mL
4 | B624 (protein) chain 1: QVQLVQSGAEVKKPGASVKVSCKASGYTFTSYYMHWVRQAPGQGLEWMGIINPSGGSTSYAQKFQGRVTMTRDTSTSTVYMELSSLRSEDTAVYYCASSPLFNWGQLYYFDYWGQGTLVTVSS chain 2: QSVLTQPPSVSGAPGQRVTISCTGSSSNIGAGYDVHWYQQLPGTAPKLLIYGNSNRPSGVPDRFSGSKSGTSASLAITGLQAEDEADYYCQSYDSSLSDNWVFGGGTKLTVL | > 1000 ng/mL | > 1000 ng/mL | 50.5 ng/mL | 24.6 ng/mL | 1.31 ng/mL
5 | B626 (protein) chain 1: EVQLVESGGDLVQPGGSLRLSCAASGFTFNKYYMNWVRQAPGKGLEWVANIKQDGSEKYYVGSVKGRFTISRDNAKNSLYLQMSSLRAEDTAVYYCASGEWLRGPFDYWGQGTLVTVSS chain 2: NFMLTQPHSVSESPGKTVTISCTGSSGSIASNYVQWYQQRPGSAPTTVIYEDNQRPSGVPDRFSGSIDSSSNSASLTISGLKTEDEADYYCQSYDSTIFYVFGTGTKVTVL | 86 ng/mL | > 1000 ng/mL | 4.86 ng/mL | 223 ng/mL | 1.58 ng/mL
6 | B628 (protein) chain 1: EVQLVESGGGLVQPGRSLRLSCAASGFTFDDYAMHWVRQYPGKGLEWVSGASWNSGTIGYGDSVKGRFIISRDNAKNSVYLQMNSLRPEDTALYYCAKSLRRDAYNYDDCAFDIWGQGTMVTVSS chain 2: SYVLTQPPSVSVAPGQTARITCGGNNIGSKSVHWYQQKPGQAPVLVVYDDSDRPSGIPERFSGSNSANTATLTISRVEAGDEADYYCQVWHSSSEHQVFGTGTKVTVL | 37 ng/mL | 520 ng/mL | 74.1 ng/mL | 18.7 ng/mL | 0.775 ng/mL
7 | B631 (protein) chain 1: EVQLVESGGGLVQPGRSLRLSCAASGFTFDDYAMHWVRQAPGKGLEWVSGISWNSGRTAYADSVKGRFTISRDNAKNSLYLQMNSLRAEDTALYYCAKASCGGDCYSLLLSPDGFDIWGQGTMVTVSS chain 2: QSVLTQPPSVSGAPGQRVTISCTGSSSNIGAGYDVHWYQQLPGTAPKLLIYDNNNRPSGVPDRFSGSKSGTSASLAITGLQAEDEADYYCQSYDSSLGGLVLFGGGTKLTV | > 1000 ng/mL | > 1000 ng/mL | 192 ng/mL | 985 ng/mL | 6.85 ng/mL
8 | B632 (protein) chain 1: QVQLVQSGAEVKKPGASVKVSCKASGYTFTRYVMHWVRQAPGQRLEWMGWINGGNGDTKYSQKFQGRVTITRDTSASTAHMELRSLRSEDTAVYYCARDLYYYNRSGHYDVDYNLDYWGQGTLVTV chain 2: QSVLTQPPSVSGAPGQRVTISCTGSSSNTGAGYDVHWYQQLPGTAPKLLIYGNTNRPSGVPDRFSGSKSGTSASLAITGLQAEDEADYYCQSYDSSLSGYVIFGGGTKLTVL | 32.1 ng/mL | 362 ng/mL | 3.17 ng/mL | 14.2 ng/mL | 2.8 ng/mL
9 | B633 (protein) chain 1: EVQLVESGGGLIQPGGSLRLSCAASGFIVSSNYMSWVRQAPGKGLEWVSVIYSGGSTFYADSVKGRFTISRDNSKNTLYLQMNSLRAEDTAVYYCARTLPGTTDLFDYWGQGTLVTVSS chain 2: QSVLTQPPSVSGAPGQRVTISCTGSSSNIGAGYDVHWYQQLPGTAPKLLIYGDSNRPSGVPDRFSGSKSGTSASLAITGLQAEDEADYYCQSFDSSLSGLGVFGTGTKVTVL | 14.8 ng/mL | 120 ng/mL | 29.3 ng/mL | > 1000 ng/mL | 3.42 ng/mL
10 | B634 (protein) chain 1: EVQLVESGGGLVKPGGSLRLSCSASGFIFTNYNMHWVRQAPGKGLEWVSSISSGSDYIYYSDSLKGRFTISRHNAKNSLYLHMNSLRAEDTAVYYCAREGYHSGLDVWGLGTTVSVSS chain 2: EIVLTQSPGTLSLSPGERATLSCRASQSVSSSYLAWYQHKPGQAPRLLIYGASSRAPGIPDRFSGSGSGTDFTLTISRLEPEDFAVYYCQQYGNSPLITFGQGTRLEIK | 32.3 ng/mL | 121 ng/mL | 26.9 ng/mL | > 1000 ng/mL | 8.96 ng/mL
11 | B635 (protein) chain 1: EVQLVESGGGLIQPGGSLRLSCAASGFIVSSNYMSWIRQAPGKGLEWVSILYPGGSAFYADSVKGRFTISRDNSKSTLYLQMNSLRAEDTAVYYCARYGLWLDWGQGTLVTVSS chain 2: EIVLTQSPATLSLSPGERATLSCRASENIVSYLAWYQQKPGQAPRLLIYDASNRATAIPARFSGSGSGTDFTLTISSLEPEDFAIYYCQQRSDWPPLTFGQGTKVEIK | 11.1 ng/mL | 39.4 ng/mL | 6.29 ng/mL | > 1000 ng/mL | 2.16 ng/mL
12 | B2103 (protein) chain 1: EVQLVESGGDLVHPGESLTLSCAASGFTFSSYSMNWVRQAPGKGLEWVSYVSSSATTIYYAESVKGRFTISRDNAKNSLYLQMNSLRDEDMAVYYCARDRTPFYDAWNGWGPLDYWGQGTLVTVSS chain 2: DIVMTQSPDSLAVSLGERATINCKSSQSVLRSSNNKNYLAWYQQKRGQPPKLLIYWASTRESGVPDRFSGSGSGTDFTLTISTLQAEDVAVYYCQQYYGPLYTFGQGTKLEIK | > 1000 ng/mL | > 1000 ng/mL | 53.2 ng/mL | 516 ng/mL | 6.48 ng/mL
13 | B1076 (protein) chain 1: EVQLVESGGGLIEPGGSLRLSCTASELIVSRNYMTWVRQAPGKGLEWVSVIYAGGTTYYADSVKGRFTISRDNSKNTLYLQMNRLRAEDTAVYYCARDLVNSGLDCWGQGTLVTVSS chain 2: DIQLTQSPSFLSASVGDRVTITCRASQGISSYLAWYQQKPGKAPKLLIYAASTLQTGVPSRFSGSGSGTEFTLTISSLQPEDFATYYCQQLDSYPPYTFGQGTKLEIK | 8.25 ng/mL | 84.3 ng/mL | 17.2 ng/mL | > 1000 ng/mL | 3.79 ng/mL
14 | B1077 (protein) chain 1: QVQLQESGPKLVKPSETLSLTCTVSGASISSYYWSWIRQPPGKGLEWIGYIFYNGRTSYNPSLKSRVTLSVDTSKDQFSLKLNSVTAADTAVYFCATDYYDTSGWHYGLDYWGQGALVTVSS chain 2: DIQLTQSPSFLSASVGDRVTITCRASQGISSHLGWYQQKPGKAPKLLIYGASTLQSGVPSRFSGSGSGTEFTLTISSLQPEDFATYYCQQLNSYRLFGQGTRLDIK | > 1000 ng/mL | > 1000 ng/mL | 19.2 ng/mL | 27 ng/mL | 4.24 ng/mL
